Test results as given in publication PMC4336329 (PLoS ONE, 2015).
Out of some 310,000 compounds screened, about 14,000 (4.5%) showed an effect of 50% or more. The effect is printed as a negative number. This is one part of the list.

What follows are compounds tested against human ether-à-go-go-related gene (hERG) potassium channel (human, UniProt Q12809) (assay: primary screen, population patch clamp on CHO cells stably expressing hERG).
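Also: peak tail current of the secondary pulse compared with the same well before compound.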

Chain of human ether-à-go-go-related gene (hERG) potassium channel (Q12809 whole entry, looked up): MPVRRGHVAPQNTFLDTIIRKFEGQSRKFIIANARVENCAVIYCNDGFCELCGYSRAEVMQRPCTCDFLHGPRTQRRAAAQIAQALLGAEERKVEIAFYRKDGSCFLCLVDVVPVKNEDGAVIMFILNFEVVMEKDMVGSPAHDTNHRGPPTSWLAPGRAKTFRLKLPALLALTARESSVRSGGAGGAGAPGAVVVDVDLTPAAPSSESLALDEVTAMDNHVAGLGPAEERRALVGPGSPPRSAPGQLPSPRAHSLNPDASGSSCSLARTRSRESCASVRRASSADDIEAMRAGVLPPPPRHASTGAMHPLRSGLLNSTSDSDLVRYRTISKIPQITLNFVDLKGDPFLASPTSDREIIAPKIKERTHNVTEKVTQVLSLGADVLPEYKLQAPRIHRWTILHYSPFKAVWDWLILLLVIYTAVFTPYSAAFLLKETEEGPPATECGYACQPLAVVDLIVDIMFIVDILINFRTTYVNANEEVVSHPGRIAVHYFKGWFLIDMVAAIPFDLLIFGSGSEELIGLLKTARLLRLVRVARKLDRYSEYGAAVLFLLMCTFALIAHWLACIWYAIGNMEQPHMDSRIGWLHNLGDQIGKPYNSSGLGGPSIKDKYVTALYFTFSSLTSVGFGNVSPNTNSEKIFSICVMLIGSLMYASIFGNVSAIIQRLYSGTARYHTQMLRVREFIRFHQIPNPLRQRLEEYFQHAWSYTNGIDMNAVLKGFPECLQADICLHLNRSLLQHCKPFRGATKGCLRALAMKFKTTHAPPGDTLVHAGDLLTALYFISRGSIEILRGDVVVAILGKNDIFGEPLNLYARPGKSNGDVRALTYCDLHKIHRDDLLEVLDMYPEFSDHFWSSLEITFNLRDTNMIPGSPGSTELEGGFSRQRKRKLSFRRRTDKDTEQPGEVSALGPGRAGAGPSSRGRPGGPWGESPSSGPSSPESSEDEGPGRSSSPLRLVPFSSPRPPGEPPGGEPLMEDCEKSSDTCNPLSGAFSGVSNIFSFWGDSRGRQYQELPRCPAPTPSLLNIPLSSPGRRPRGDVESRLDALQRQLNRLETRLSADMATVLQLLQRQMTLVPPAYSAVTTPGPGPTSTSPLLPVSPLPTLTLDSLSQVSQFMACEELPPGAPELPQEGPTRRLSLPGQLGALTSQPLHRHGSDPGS

| Compound | hERG current change (%, negative = inhibition) at 10uM [%] |
| --- | --- |
| CCOC(=O)Nc1ccc2c(c1)N(C(=O)CCCl)c1ccccc1[S@]2=O | 8.49 |
| O=C(CC(=O)c1ccccc1)Nc1ccccc1C(F)(F)F | 11.1 |
| O=C(c1ccco1)N1CCC(c2nc3c(nnn3Cc3ccc(F)cc3)c(=O)[nH]2)CC1 | -29.9 |
| Cc1cc(C(=O)Nc2ccccc2N2CCCCC2)no1 | -4.8 |
| CCN(CC)CCNc1nc(SC)nc2sc3c(c12)CCN(C)C3 | -6.12 |
| O=C(Nc1ccccc1)Nc1csc2ccccc12 | 4.11 |
| COc1ccc(C(=O)Nc2cc(C(F)(F)F)ccc2Cl)cc1OC | -8.46 |
| O=C(OCc1cc([N+](=O)[O-])cc2c1OCOC2)c1ccccn1 | 38 |
| COC(=O)c1c(NC(NC(=O)C(C)C)C(Cl)(Cl)Cl)sc2c1CCC2 (stereo not shown) | 0.984 |
| COc1ccc(NC(=O)c2ccco2)cc1NC(=O)c1ccccc1[N+](=O)[O-] | -3.23 |
| CC1=NN(C(C)C)C(=O)C1 | 8.62 |
| COc1ccc(Cl)cc1NC(=O)CN(C)CC(=O)Nc1ccccc1C(F)(F)F | -1.19 |
| O=C(C1CCN(S(=O)(=O)c2cccnc2)CC1)N1CCCCC1 | 1.83 |
| CCN1C(=O)/C(=C\c2cccc(OC(=O)c3ccco3)c2)SC1=S | 14.7 |
| Cc1nc(CNS(=O)(=O)c2cc(C)c(C)cc2C)cs1 | -7.31 |
| Cc1ncc(CSCC(=O)Nc2cc(C(F)(F)F)ccc2Cl)c(CO)c1O | 3.86 |
| CC(C)COC(=O)Cc1c(O)c2ccccc2[nH]c1=O | 11.6 |
| O=C(CC1C(=O)NCCN1Cc1ccc(-c2ccccc2)cc1)NC1CCC1 (stereo not shown) | -7.07 |
| CSc1ccc(S(=O)(=O)Nc2cccc(F)c2)cc1 | -0.83 |
| Cc1cc(=O)[nH]c(NN=C2CCC(C(C)(C)C)CC2)n1 (stereo not shown) | 13.2 |

| Compound | hERG current change (%, negative = inhibition) at 10uM [%] |
| --- | --- |
| COc1ccc(C2=NN(C(C)=O)C(c3ccccc3)C2)cc1 (stereo not shown) | -3.38 |
| O=C(OCC(=O)N(CCc1ccccc1)Cc1ccccc1)c1cccc(O)c1 | 52.2 |
| O=C1CC(NS(=O)(=O)c2ccc3ccccc3c2)CN1c1ccccc1 (stereo not shown) | -0.798 |
| O=C(CSc1nc(=O)n(CCCN2CCOCC2)c2c1CCC2)Nc1ccc(F)cc1 | -39.5 |
| CN(C)C(=S)Nc1cccc(F)c1 | -1.26 |
| COc1ccc(-c2cc(C(=O)NCc3ccco3)c3ccccc3n2)cc1 | -5.84 |
| Cc1cc(C)c(C(=O)COC(=O)c2cc([N+](=O)[O-])ccc2N2CCOCC2)cc1C | -4.07 |
| Cn1c(SCc2ccc(Cl)cc2)nnc1-c1ccc2nonc2c1 | 0.685 |
| CCOc1cccc2sc(N3CCN(C(=O)c4ccc5ncsc5c4)CC3)nc12 | 2.18 |
| CCOc1ccc(-c2cc(N)n(S(=O)(=O)c3ccc(OC)cc3)n2)cc1 | 10.7 |
| CCOC(=O)N/N=C/c1ccc(N2CCOCC2)s1 | -28 |
| O=S(=O)(c1ccccc1)c1nc(-c2ccco2)oc1N1CCCCCC1 | -30.6 |
| O=C(COc1ccccc1)N=C1SC2CS(=O)(=O)CC2N1Cc1ccccc1 (stereo not shown) | 1.81 |
| C/C(=N\NC(=O)c1ccc(-c2ccccc2)cc1)c1ccco1 | -19.1 |
| COc1ccc(C)cc1S(=O)(=O)N(CC(=O)N1CCOCC1)Cc1ccccc1 | -19.7 |
| CCN(CC)c1ccc(NC(=O)CN2C(=O)CC(C)(C)S(=O)(=O)c3ccccc32)c(C)c1 | -1.01 |
| O=S(=O)(Nc1nc2ccccc2nc1N1CCN(c2ccccc2F)CC1)c1ccc(Cl)cc1 | 1.45 |
| COc1cc(Cl)c(NS(=O)(=O)c2ccc(-c3ccc(=O)[nH]n3)o2)c(OC)c1 | 13.1 |
| CCOC(=O)c1cnc2c(c(C)nn2C)c1Oc1ccccc1F | 1.29 |
| COc1ccc(OC)c(C(=O)CSc2nnc(Cc3cccs3)n2CCc2ccccc2)c1 | -21 |

| Compound | hERG current change (%, negative = inhibition) at 10uM [%] |
| --- | --- |
| O=C(O)c1cc(S(=O)(=O)N2CCCCC2)ccc1F | -12.3 |
| CC(C)(NO)/C(=N\O)c1ccccc1 | 23.2 |
| COc1cc(C)ccc1S(=O)(=O)N1CCCCCC1 | -1.64 |
| O=C(CCCOc1ccccc1)N1CCCCC1 | -5.84 |
| O=C(O)CC1(CC(=O)NCc2cc(F)cc3c2OCOC3)CCCCC1 | 6.25 |
| Cc1nc(-c2ccc(S(=O)(=O)N3CCN(CCc4ccccc4)CC3)s2)cs1 | 12.5 |
| CCOc1ccccc1NC(=O)CSc1nc(=O)n(Cc2ccncc2)c2c1CCC2 | -36.3 |
| CCOc1ccc(NC(=O)CC2C(=O)N(c3ccc(OC)cc3)C(=S)N2Cc2ccccn2)cc1 (stereo not shown) | -29.5 |
| COc1ccc(CNCCc2ccc3c(c2)OCO3)c(OC)c1OC.O=C(O)C(=O)O | -29.9 |
| CCSc1nnc(-c2ccc(Cl)cc2)c2ccccc12 | 2.18 |
| Cc1ccc(S(=O)(=O)N(Cc2cccc(C)c2)C(=O)N2CCN(C)CC2)cc1 | 19.2 |
| O=C1CCC/C1=C/Nc1ccc2c(c1)OCO2 | 14.5 |
| Cc1cccc(NC(=S)NC(=O)C2CC2)c1 | 4.59 |
| Cc1csc(NC(=O)c2cc3c(s2)CCC3)n1 | -5.99 |
| Cc1cccc(C)c1NC(=O)c1sc(N)nc1-c1ccccc1 | 7.39 |
| O=C(NC1CC1)C1CC(=O)N(C2CCCCC2)C1 (stereo not shown) | 16.6 |
| COc1ccc([C@H]2CC(=O)C=C(c3ccc4c(c3)OCCO4)C2)cc1 | 13.1 |
| CC(C)C(NS(=O)(=O)c1cccs1)C(=O)NCc1ccccc1Cl (stereo not shown) | 0.166 |
